Assay [1] has as its target T1, HA-FVE (Arabidopsis thaliana), O22607.
T1 chain: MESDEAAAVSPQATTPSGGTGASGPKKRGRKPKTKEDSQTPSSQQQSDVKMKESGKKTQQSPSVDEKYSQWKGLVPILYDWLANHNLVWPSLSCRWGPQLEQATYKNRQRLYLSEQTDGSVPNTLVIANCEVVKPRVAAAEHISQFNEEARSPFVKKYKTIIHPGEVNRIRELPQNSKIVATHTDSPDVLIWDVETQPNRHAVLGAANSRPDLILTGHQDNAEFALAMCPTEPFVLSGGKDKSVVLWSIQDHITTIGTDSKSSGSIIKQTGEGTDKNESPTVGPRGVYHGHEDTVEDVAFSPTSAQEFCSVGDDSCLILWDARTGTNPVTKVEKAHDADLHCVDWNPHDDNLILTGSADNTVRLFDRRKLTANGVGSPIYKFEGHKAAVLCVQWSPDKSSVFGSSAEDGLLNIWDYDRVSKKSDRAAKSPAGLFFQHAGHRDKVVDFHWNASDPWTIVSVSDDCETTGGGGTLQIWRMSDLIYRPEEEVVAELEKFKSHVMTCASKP
The assay is described as follows: co-IP; total protein extracts of transgenic seedlings immunoprecipitated with anti-HA agarose; western blot with anti-GFP or anti-myc. Particulars: remark: other sources report otherwise. (Immunoblotting shows a protein as a band on a membrane.)

The target of assay [2] is T2, HDA6-cEYFP (Arabidopsis thaliana) (UniProt Q9FML2).
T2 sequence: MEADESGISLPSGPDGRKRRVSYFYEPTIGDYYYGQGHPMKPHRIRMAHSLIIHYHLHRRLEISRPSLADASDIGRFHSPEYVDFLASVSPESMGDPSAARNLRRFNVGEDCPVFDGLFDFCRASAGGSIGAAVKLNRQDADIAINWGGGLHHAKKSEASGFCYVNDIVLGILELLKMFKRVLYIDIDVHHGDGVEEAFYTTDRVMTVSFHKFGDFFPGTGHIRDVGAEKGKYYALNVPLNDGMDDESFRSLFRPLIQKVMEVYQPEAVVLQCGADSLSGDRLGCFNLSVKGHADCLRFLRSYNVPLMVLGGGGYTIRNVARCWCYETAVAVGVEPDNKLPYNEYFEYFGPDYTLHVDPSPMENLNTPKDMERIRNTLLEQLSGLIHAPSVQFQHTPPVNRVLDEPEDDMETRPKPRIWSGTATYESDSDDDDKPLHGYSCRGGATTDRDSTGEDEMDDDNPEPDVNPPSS
The assay is described as follows: split reporter; BiFC with nEYFP and cEYFP fusions co-expressed in onion epidermal cells by biolistic bombardment; EYFP fluorescence imaged by confocal microscopy 24-48 hrs after bombardment.

The target of assay [3] is T3, HDA6-FLAG (Arabidopsis thaliana) (UniProt Q9FML2).
T3 sequence: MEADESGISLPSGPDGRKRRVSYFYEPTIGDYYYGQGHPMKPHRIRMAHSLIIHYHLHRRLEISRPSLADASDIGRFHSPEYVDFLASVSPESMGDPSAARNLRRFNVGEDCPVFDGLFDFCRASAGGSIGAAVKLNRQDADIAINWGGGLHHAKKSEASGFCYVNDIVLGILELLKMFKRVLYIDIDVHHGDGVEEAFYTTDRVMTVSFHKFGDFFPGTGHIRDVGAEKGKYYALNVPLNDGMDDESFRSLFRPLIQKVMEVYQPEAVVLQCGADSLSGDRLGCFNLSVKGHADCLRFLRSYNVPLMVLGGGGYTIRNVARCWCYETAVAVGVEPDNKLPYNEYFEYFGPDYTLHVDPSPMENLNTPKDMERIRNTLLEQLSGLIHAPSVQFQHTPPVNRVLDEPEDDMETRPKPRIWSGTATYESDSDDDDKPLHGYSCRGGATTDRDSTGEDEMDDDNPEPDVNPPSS
The assay is described as follows: co-IP; total protein extracts of F1 seedlings (HDA6-FLAG crossed to MSI5-YFP-HA or HA-FVE) immunoprecipitated with anti-FLAG M2 affinity gel; western blot with anti-HA.

For assay [4], the target named is T4, MSI5-YFP-HA (Arabidopsis thaliana) (UniProt Q9SU78).
T4 sequence: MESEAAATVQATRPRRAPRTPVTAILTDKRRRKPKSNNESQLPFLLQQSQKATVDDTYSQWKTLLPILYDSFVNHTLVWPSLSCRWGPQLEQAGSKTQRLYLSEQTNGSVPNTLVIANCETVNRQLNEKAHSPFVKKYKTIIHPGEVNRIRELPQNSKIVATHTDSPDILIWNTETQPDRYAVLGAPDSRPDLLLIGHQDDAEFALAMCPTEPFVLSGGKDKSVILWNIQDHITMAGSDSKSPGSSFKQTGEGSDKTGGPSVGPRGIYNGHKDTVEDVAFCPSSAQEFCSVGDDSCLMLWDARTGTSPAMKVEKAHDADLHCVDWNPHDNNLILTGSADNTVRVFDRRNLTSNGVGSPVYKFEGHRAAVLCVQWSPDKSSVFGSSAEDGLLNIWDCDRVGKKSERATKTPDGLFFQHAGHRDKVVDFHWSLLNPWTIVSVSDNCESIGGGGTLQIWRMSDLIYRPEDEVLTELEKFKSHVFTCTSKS
The assay is described as follows: co-IP; total protein extracts of transgenic seedlings immunoprecipitated with anti-HA agarose; western blot with anti-GFP or anti-myc.

These are yes or no findings as the source states them, for the method shown. Binding seen in cells or lysates may run through a third protein. Some binding calls cover weakened binding; strength is not graded here. For part of these data: Tags and fused reporters may be left off the sequences shown.

B1: GFP-CLF, P93831 1-902 (protein)
chain: MASEASPSSSATRSEPPKDSPAEERGPASKEVSEVIESLKKKLAADRCISIKKRIDENKKNLFAITQSFMRSSMERGGSCKDGSDLLVKRQRDSPGMKSGIDESNNNRYVEDGPASSGMVQGSSVPVKISLRPIKMPDIKRLSPYTTWVFLDRNQRMTEDQSVVGRRRIYYDQTGGEALICSDSEEEAIDDEEEKRDFLEPEDYIIRMTLEQLGLSDSVLAELASFLSRSTSEIKARHGVLMKEKEVSESGDNQAESSLLNKDMEGALDSFDNLFCRRCLVFDCRLHGCSQDLIFPAEKPAPWCPPVDENLTCGANCYKTLLKSGRFPGYGTIEGKTGTSSDGAGTKTTPTKFSSKLNGRKPKTFPSESASSNEKCALETSDSENGLQQDTNSDKVSSSPKVKGSGRRVGRKRNKNRVAERVPRKTQKRQKKTEASDSDSIASGSCSPSDAKHKDNEDATSSSQKHVKSGNSGKSRKNGTPAEVSNNSVKDDVPVCQSNEVASELDAPGSDESLRKEEFMGETVSRGRLATNKLWRPLEKSLFDKGVEIFGMNSCLIARNLLSGFKSCWEVFQYMTCSENKASFFGGDGLNPDGSSKFDINGNMVNNQVRRRSRFLRRRGKVRRLKYTWKSAAYHSIRKRITEKKDQPCRQFNPCNCKIACGKECPCLLNGTCCEKYCGCPKSCKNRFRGCHCAKSQCRSRQCPCFAADRECDPDVCRNCWVIGGDGSLGVPSQRGDNYECRNMKLLLKQQQRVLLGISDVSGWGAFLKNSVSKHEYLGEYTGELISHKEADKRGKIYDRENCSFLFNLNDQFVLDAYRKGDKLKFANHSPEPNCYAKVIMVAGDHRVGIFAKERILAGEELFYDYRYEPDRAPAWAKKPEAPGSKKDENVTPSVGRPKKLA
Turning to B1, in assay [1], the binding result is “no binding”.

B2: nEYFP-FVE (protein, UniProt O22607 1-507)
chain: MESDEAAAVSPQATTPSGGTGASGPKKRGRKPKTKEDSQTPSSQQQSDVKMKESGKKTQQSPSVDEKYSQWKGLVPILYDWLANHNLVWPSLSCRWGPQLEQATYKNRQRLYLSEQTDGSVPNTLVIANCEVVKPRVAAAEHISQFNEEARSPFVKKYKTIIHPGEVNRIRELPQNSKIVATHTDSPDVLIWDVETQPNRHAVLGAANSRPDLILTGHQDNAEFALAMCPTEPFVLSGGKDKSVVLWSIQDHITTIGTDSKSSGSIIKQTGEGTDKNESPTVGPRGVYHGHEDTVEDVAFSPTSAQEFCSVGDDSCLILWDARTGTNPVTKVEKAHDADLHCVDWNPHDDNLILTGSADNTVRLFDRRKLTANGVGSPIYKFEGHKAAVLCVQWSPDKSSVFGSSAEDGLLNIWDYDRVSKKSDRAAKSPAGLFFQHAGHRDKVVDFHWNASDPWTIVSVSDDCETTGGGGTLQIWRMSDLIYRPEEEVVAELEKFKSHVMTCASKP
With B2, the binding entry in assay [2] is recorded as “binds”.

B3: HA-FVE (protein, UniProt O22607 1-507)
chain: MESDEAAAVSPQATTPSGGTGASGPKKRGRKPKTKEDSQTPSSQQQSDVKMKESGKKTQQSPSVDEKYSQWKGLVPILYDWLANHNLVWPSLSCRWGPQLEQATYKNRQRLYLSEQTDGSVPNTLVIANCEVVKPRVAAAEHISQFNEEARSPFVKKYKTIIHPGEVNRIRELPQNSKIVATHTDSPDVLIWDVETQPNRHAVLGAANSRPDLILTGHQDNAEFALAMCPTEPFVLSGGKDKSVVLWSIQDHITTIGTDSKSSGSIIKQTGEGTDKNESPTVGPRGVYHGHEDTVEDVAFSPTSAQEFCSVGDDSCLILWDARTGTNPVTKVEKAHDADLHCVDWNPHDDNLILTGSADNTVRLFDRRKLTANGVGSPIYKFEGHKAAVLCVQWSPDKSSVFGSSAEDGLLNIWDYDRVSKKSDRAAKSPAGLFFQHAGHRDKVVDFHWNASDPWTIVSVSDDCETTGGGGTLQIWRMSDLIYRPEEEVVAELEKFKSHVMTCASKP
As for B3, the binding result in assay [3] is reported as “binds weakly”.

B4: FLD-myc (protein, UniProt Q9CAE3 1-789)
chain: MVSFSAPKKRRRGRSQRSMSSLNSLPVPNVGLLPGNSNFVSSSASSSGRFNVEVVNGSNQTVKSYPGIGDEIITINKEATTEALLALTAGFPADSLTEEEIEFGVVPIVGGIEQVNYILIRNHIISKWRENISSWVTKEMFLNSIPKHCSSLLDSAYNYLVTHGYINFGIAQAIKDKFPAQSSKSSVIIVGAGLSGLAAARQLMRFGFKVTVLEGRKRPGGRVYTKKMEANRVGAAADLGGSVLTGTLGNPLGIIARQLGSSLYKVRDKCPLYRVDGKPVDPDVDIKVEVAFNQLLDKASKLRQLMGDVSMDVSLGAALETFRQVSGNDVATEEMGLFNWHLANLEYANAGLVSKLSLAFWDQDDPYDMGGDHCFLPGGNGRLVQALAENVPILYEKTVQTIRYGSNGVKVTAGNQVYEGDMVLCTVPLGVLKNGSIKFVPELPQRKLDCIKRLGFGLLNKVAMLFPYVFWSTDLDTFGHLTEDPNYRGEFFLFYSYAPVAGGALLIALVAGEAAHKFETMPPTDAVTRVLHILRGIYEPQGINVPDPLQTVCTRWGGDPFSLGSYSNVAVGASGDDYDILAESVGDGRLFFAGEATTRRYPATMHGAFVTGLREAANMAQSAKARGIRKRIDRNPSRNAHSCAILLADLFRDPDLEFGSFCIIFSRRNPDPKSPAILRVTLSEPRKRNEDPKADQHSNKILFQQLQSHFNQQQQIQVYTLLTRQQALDLREVRGGDEKRLYYLCETLGVKLVGRKGLGVGADSVIASIKAERTGRKLPSSSTSGTKSG
For B4, in assay [4], the binding entry is “binds”.

B5: nEYFP-MSI5 (protein, UniProt Q9SU78 1-487)
chain: MESEAAATVQATRPRRAPRTPVTAILTDKRRRKPKSNNESQLPFLLQQSQKATVDDTYSQWKTLLPILYDSFVNHTLVWPSLSCRWGPQLEQAGSKTQRLYLSEQTNGSVPNTLVIANCETVNRQLNEKAHSPFVKKYKTIIHPGEVNRIRELPQNSKIVATHTDSPDILIWNTETQPDRYAVLGAPDSRPDLLLIGHQDDAEFALAMCPTEPFVLSGGKDKSVILWNIQDHITMAGSDSKSPGSSFKQTGEGSDKTGGPSVGPRGIYNGHKDTVEDVAFCPSSAQEFCSVGDDSCLMLWDARTGTSPAMKVEKAHDADLHCVDWNPHDNNLILTGSADNTVRVFDRRNLTSNGVGSPVYKFEGHRAAVLCVQWSPDKSSVFGSSAEDGLLNIWDCDRVGKKSERATKTPDGLFFQHAGHRDKVVDFHWSLLNPWTIVSVSDNCESIGGGGTLQIWRMSDLIYRPEDEVLTELEKFKSHVFTCTSKS
In the case of B5, in assay [2], the binding result is on record as “binds”.

B6: MSI5-YFP-HA (protein, UniProt Q9SU78 1-487)
chain: MESEAAATVQATRPRRAPRTPVTAILTDKRRRKPKSNNESQLPFLLQQSQKATVDDTYSQWKTLLPILYDSFVNHTLVWPSLSCRWGPQLEQAGSKTQRLYLSEQTNGSVPNTLVIANCETVNRQLNEKAHSPFVKKYKTIIHPGEVNRIRELPQNSKIVATHTDSPDILIWNTETQPDRYAVLGAPDSRPDLLLIGHQDDAEFALAMCPTEPFVLSGGKDKSVILWNIQDHITMAGSDSKSPGSSFKQTGEGSDKTGGPSVGPRGIYNGHKDTVEDVAFCPSSAQEFCSVGDDSCLMLWDARTGTSPAMKVEKAHDADLHCVDWNPHDNNLILTGSADNTVRVFDRRNLTSNGVGSPVYKFEGHRAAVLCVQWSPDKSSVFGSSAEDGLLNIWDCDRVGKKSERATKTPDGLFFQHAGHRDKVVDFHWSLLNPWTIVSVSDNCESIGGGGTLQIWRMSDLIYRPEDEVLTELEKFKSHVFTCTSKS
As to B6, the binding entry in assay [3] is recorded as “binds”.

Source of the values: publication PMC3213158.
